Measured values taken from the supplement of paper PMC7826260.
Some of the results follow. One pool of 16,384 single-stranded DNAs met each Rep nickase domain in vitro for 1 h at 37 °C with 3 µM enzyme; only the middle of the 90-letter strands is printed. Numbers give uncut DNA relative to the enzyme-free pool, as log2; strong cutting gives strongly negative numbers. There is no active / inactive call. Reads are scaled to the total, so uncut sequences can rise above 0 when many others are cut.

Columns and labels:
Assay in all cases: uncleaved DNA left, log2 of reads against the no-enzyme library (log2 ratio); higher = less cleavage (more negative = more Rep cleavage of the k-mer); sequences stand for … in CTCGTCCG…ACCGGAGA
[1] = system: T1, Rep nickase domain of Muscovy duck circovirus
T1 sequence (residues 1-111, tag not shown): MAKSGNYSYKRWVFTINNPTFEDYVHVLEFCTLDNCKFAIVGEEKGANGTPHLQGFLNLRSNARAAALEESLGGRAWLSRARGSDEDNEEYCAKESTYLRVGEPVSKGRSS
Procedure: (§1)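 A pool of 90-nt single-stranded DNAs with seven random bases just before the constant AC of the nick site (name = the seven bases) was cut by 3 µM recombinant His6-SUMO-tagged Rep nickase domain (300 nM DNA, 50 mM HEPES pH 8.0, 50 mM NaCl, 1 mM MnCl2, 1 h, 37 °C, three replicates). Uncut DNA was amplified and sequenced.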

[2] = system: T2, Rep nickase domain of banana bunchy top virus
T2 sequence (residues 1-94, tag not shown): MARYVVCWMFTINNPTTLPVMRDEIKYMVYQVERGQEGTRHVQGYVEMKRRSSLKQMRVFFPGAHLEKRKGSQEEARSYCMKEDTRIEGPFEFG
Procedure: as §1

[3] = system: T3, Rep nickase domain of cabbage leaf curl virus
T3 sequence (residues 1-116, tag not shown): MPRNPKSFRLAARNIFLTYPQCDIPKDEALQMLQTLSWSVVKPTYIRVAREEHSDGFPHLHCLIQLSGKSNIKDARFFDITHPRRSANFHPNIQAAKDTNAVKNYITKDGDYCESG
Procedure: as §1

[4] = system: T4, Rep nickase domain of chickpea chlorotic dwarf virus
T4 sequence (residues 1-124, tag not shown): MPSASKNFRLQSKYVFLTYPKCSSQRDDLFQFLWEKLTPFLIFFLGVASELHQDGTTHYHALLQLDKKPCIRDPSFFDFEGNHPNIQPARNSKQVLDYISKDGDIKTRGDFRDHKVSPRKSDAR
Procedure: as §1

[5] = system: T5, Rep nickase domain of faba bean necrotic yellows virus
T5 sequence (residues 1-98, tag not shown): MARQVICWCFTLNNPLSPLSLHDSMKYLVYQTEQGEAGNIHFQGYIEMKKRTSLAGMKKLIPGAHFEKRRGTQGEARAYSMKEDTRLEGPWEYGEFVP
Procedure: as §1

[6] = system: T6, Rep nickase domain of maize striate mosaic virus
T6 sequence (residues 1-117, tag not shown): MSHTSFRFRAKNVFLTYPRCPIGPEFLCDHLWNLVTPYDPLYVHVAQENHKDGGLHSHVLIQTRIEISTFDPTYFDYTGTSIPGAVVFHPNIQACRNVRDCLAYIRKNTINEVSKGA
Procedure: as §1

[7] = system: T7, Rep nickase domain of porcine circovirus 2
T7 sequence (residues 2-116, tag not shown): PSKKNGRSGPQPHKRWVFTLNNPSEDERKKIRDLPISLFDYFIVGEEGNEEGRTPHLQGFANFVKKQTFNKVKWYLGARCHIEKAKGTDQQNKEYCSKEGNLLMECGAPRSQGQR
Procedure: as §1

[8] = system: T8, Rep nickase domain of tomato yellow leaf curl virus
T8 sequence (residues 1-136, tag not shown): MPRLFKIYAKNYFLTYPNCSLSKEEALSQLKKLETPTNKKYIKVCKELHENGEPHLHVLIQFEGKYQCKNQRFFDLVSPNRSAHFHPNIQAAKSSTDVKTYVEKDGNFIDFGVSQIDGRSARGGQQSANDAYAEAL
Procedure: as §1

[9] = system: T9, Rep nickase domain of wheat dwarf virus
T9 sequence (residues 1-137, tag not shown): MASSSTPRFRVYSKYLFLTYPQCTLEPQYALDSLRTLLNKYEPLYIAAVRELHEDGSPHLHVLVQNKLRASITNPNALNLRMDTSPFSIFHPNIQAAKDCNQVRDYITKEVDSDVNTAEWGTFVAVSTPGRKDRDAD
Procedure: as §1

Row | Sequence | uncleaved DNA left (log2) [1] | uncleaved DNA left (log2) [2] | uncleaved DNA left (log2) [3] | uncleaved DNA left (log2) [4] | uncleaved DNA left (log2) [5] | uncleaved DNA left (log2) [6] | uncleaved DNA left (log2) [7] | uncleaved DNA left (log2) [8] | uncleaved DNA left (log2) [9]
1 | ATATGTT | -3.65 | -1.02 | -3.31 | -2.99 | -0.196 | -2.49 | -3.45 | -0.0895 | -2.17
2 | GCGGTCT | 0.0545 | 0.133 | 0.51 | 0.917 | 0.0665 | 1.65 | 0.0192 | -0.000284 | 0.0414
3 | ATGACGA | 0.0261 | 0.0718 | 0.0689 | 0.0615 | 0.0687 | -0.574 | 0.0832 | 0.0642 | 0.0318
4 | TGGAAAG | 0.0819 | -0.0845 | -0.424 | -0.152 | 0.0622 | -0.857 | 0.164 | 0.1 | -0.0884
5 | GTCACAT | 0.0451 | 0.201 | 0.648 | 1.4 | 0.0211 | 1.99 | 0.192 | 0.0777 | 0.188
6 | AGATGGA | 0.149 | 0.0806 | 0.261 | 0.518 | 0.149 | 0.137 | 0.0807 | 0.0154 | 0.11
7 | ATTGGAT | 0.0228 | -0.0254 | 0.293 | 1.67 | 0.0343 | 1.89 | 0.118 | -0.211 | 0.102
8 | AGTCAGC | 0.0847 | 0.0827 | -0.131 | -0.215 | 0.211 | -0.693 | 0.115 | 0.0543 | 0.154
9 | AAAGGTC | 0.118 | 0.122 | 0.3 | 0.881 | 0.0422 | 0.931 | 0.142 | 0.0177 | 0.022
10 | GAGCTCT | -0.0385 | 0.0708 | 0.0829 | -1.66 | -0.148 | 0.778 | -2.51 | 0.0843 | 0.0539
11 | CACTAAT | -3.19 | -3.02 | -1.13 | -2.88 | -0.561 | -0.832 | -3.44 | 0.0653 | -0.222
12 | CATACAT | 0.0182 | -0.309 | 0.248 | -0.233 | 0.0181 | 0.111 | -0.119 | 0.0244 | 0.0911
13 | TGTTCTT | -3.29 | -0.27 | 0.0521 | -1.1 | -0.115 | 0.849 | -2.73 | -0.0137 | -0.0429
14 | CCGCGTT | -0.073 | -0.196 | -0.43 | -1.28 | -0.159 | -0.611 | -0.0989 | -0.0159 | -0.205
15 | ACGGAAC | -0.0543 | -0.135 | -0.0674 | 0.149 | -0.125 | -0.126 | 0.13 | -0.182 | -0.0223
16 | AACCCGT | 0.0196 | 0.0697 | 0.245 | -0.246 | 0.144 | -0.314 | -0.0627 | 0.034 | -0.0387

Row | Sequence | uncleaved DNA left (log2) [1] | uncleaved DNA left (log2) [2] | uncleaved DNA left (log2) [3] | uncleaved DNA left (log2) [4] | uncleaved DNA left (log2) [5] | uncleaved DNA left (log2) [6] | uncleaved DNA left (log2) [7] | uncleaved DNA left (log2) [8] | uncleaved DNA left (log2) [9]
17 | AAAAGCC | 0.063 | 0.106 | -0.442 | -0.815 | 0.136 | -0.957 | 0.16 | 0.102 | -0.0209
18 | ATCGTGG | -0.0595 | -0.0729 | -0.144 | 0.0042 | -0.0505 | -0.778 | 0.0989 | -0.0272 | -0.105
19 | ATTACGC | 0.0177 | 0.0643 | -0.0324 | -0.837 | 0.0664 | -0.836 | 0.178 | 0.0721 | 0.00209
20 | TTCGCCG | -0.0742 | -0.242 | -1.03 | -0.354 | -0.151 | -1.14 | -0.134 | -0.174 | -0.264
21 | CATCTTT | -0.156 | -0.385 | -0.404 | -3.1 | -0.0386 | -0.806 | -2.19 | 0.0176 | -0.137
22 | ATATTGA | -0.0273 | -0.0109 | -0.422 | -0.605 | -0.0429 | -1.22 | 0.112 | -0.0337 | -0.116
23 | AGGTATG | 0.141 | 0.0717 | 0.109 | 0.406 | 0.178 | 0.376 | 0.0447 | -0.051 | 0.0929
24 | ACTGGGC | -0.0496 | -0.0943 | -0.21 | -0.0279 | -0.062 | -0.598 | 0.199 | -0.0256 | -0.171
25 | GATCTAA | -0.0248 | 0.0544 | 0.222 | 0.655 | -0.0533 | 1.06 | 0.025 | 0.129 | 0.0281
26 | TCATCAC | 0.0427 | 0.0135 | 0.0565 | -0.205 | 0.0554 | -0.608 | 0.0863 | 0.0574 | -0.00362
27 | CTTAGTT | -0.095 | -0.149 | -0.195 | -2.09 | -0.0532 | -0.642 | -0.43 | -0.0197 | -0.00668
28 | AGGCCCT | -0.0899 | -0.0414 | 0.731 | 1.42 | -0.116 | 2.1 | -0.143 | 0.0146 | 0.0955
29 | TTAAATT | -0.216 | -0.173 | -0.125 | -2.51 | 0.0287 | -0.311 | -1.02 | -0.0946 | -0.278
30 | AAATACA | -0.574 | 0.0044 | -0.882 | -2.87 | 0.00502 | -0.902 | -1.31 | 0.0284 | -0.211
31 | AGTAGCG | 0.0793 | 0.0306 | -0.799 | 0.444 | 0.0211 | -0.662 | 0.14 | 0.0654 | -0.178
32 | CTTCTTG | -0.00843 | -0.0389 | -0.697 | -2.07 | -0.0165 | -1.25 | 0.102 | 0.166 | -0.0502
